This is an account of results in the supplement of paper PMC11876631.

± gives the standard deviation of the averaged measurements. Laboratory Escherichia coli strains with one amino-acid change in an essential protein, pooled on minimal glucose agar with carbenicillin or gentamicin at twice the control MIC (plus kanamycin and chloramphenicol for the plasmids), 48 h. Fold change of barcode share against drug-free plates; higher = less susceptible. Active = above 20 in both replicates (the paper's putatively resistant). '<' = one read or none on drug, '>' = one read or none on a drug-free plate. Shares are relative, so most strains fall below 1 when a few take over. Listed are strains with at least 15 reads on both drug-free plates, and hits; most hits rest on fewer reference reads. Replicate rank correlation about 0.5. Edits are read from barcodes.

B1: ftsL; numbered along this chain (parent)
chain: MISRVTEALSKVKGSMGSHERHALPGVIGDDLLRFGKLPLCLFICIILTAVTVVTTAHHTRLLTAQREQLVLERDALDIEWRNLILEENALGDHSRVERIATEKLQMQHVDPSQENIVVQK
B2: yrfF; numbered along this chain (parent)
chain: MSTIVIFLAALLACSLLAGWLIKVRSRRRQLPWTNAFADAQTRKLTPEERSAVENYLESLTQVLQVPGPTGASAAPISLALNAESNNVMMLTHAITRYGISTDDPNKWRYYLDSVEVHLPPFWEQYINDENTVELIHTDSLPLVISLNGHTLQEYMQETRSYALQPVPSTQASIRGEESEQIELLNIRKETHEEYALSRPRGLREALLIVASFLMFFFCLITPDVFVPWLAGGALLLLGAGLWGLFAPPAKSSLREIHCLRGTPRRWGLFGENDQEQINNISLGIIDLVYPAHWQPYIAQDLGQQTDIDIYLDRHVVRQGRYLSLHDEVKNFPLQHWLRSTIIAAGSLLVLFMLLFWIPLDMPLKFTLSWMKGAQTIEATSVKQLADAGVRVGDTLRISGTGMCNIRTSGTWSAKTNSPFLPFDCSQIIWNDARSLPLPESELVNKATALTEAVNRQLHPKPEDESRVSASLRSAIQKSGMVLLDDFGDIVLKTADLCSAKDDCVRLKNALVNLGNSKDWDALVKRANAGKLDGVNVLLRPVSAESLDNLVATSTAPFITHETARAAQSLNSPAPGGFLIVSDEGSDFVDQPWPSASLYDYPPQEQWNAFQKLAQMLMHTPFNAEGIVTKIFTDANGTQHIGLHPIPDRSGLWRYLSTTLLLLTMLGSAIYNGVQAWRRYQRHRTRMMEIQAYYESCLNPQLITPSESLIE
B3: thrB; numbered along this chain (parent)
chain: MVKVYAPASSANMSVGFDVLGAAVTPVDGALLGDVVTVEAAETFSLNNLGRFADKLPSEPRENIVYQCWERFCQELGKQIPVAMTLEKNMPIGSGLGSSACSVVAALMAMNEHCGKPLNDTRLLALMGELEGRISGSIHYDNVAPCFLGGMQLMIEENDIISQQVPGFDEWLWVLAYPGIKVSTAEARAILPAQYRRQDCIAHGRHLAGFIHACYSRQPELAAKLMKDVIAEPYRERLLPGFRQARQAVAEIGAVASGISGSGPTLFALCDKPETAQRVADWLGKNYLQNQEGFVHICRLDTAGARVLEN

Variants of B1 are the subject of one data set. Nature of the data set: barcode share on antibiotic plates over drug-free plates; higher = less susceptible. The note with it: with Escherichia coli (laboratory strain); antibiotic: carbenicillin; 2× MIC (3.1 µg/mL). Here is the method:
(§1)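 A pool of E. coli strains, each edited to carry one amino-acid change in an essential protein, was grown for 48 h on minimal glucose agar with or without antibiotic; strain barcodes were sequenced; mean of two replicates.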
As for I44P, the “fold change of barcode share” value was 0.314 ± 0.096.

For I44A, the “fold change of barcode share” value stood at 0.361 ± 0.007.

As to I46P, the “fold change of barcode share” value worked out at 0.292 ± 0.04.

Turning to I46D, the “fold change of barcode share” value amounted to 0.196 ± 0.13.

Take I46Q: the “fold change of barcode share” value is 0.289 ± 0.013.

In the case of I46W, the “fold change of barcode share” value worked out at 0.2832 ± 0.002.

For the variant I46A, the “fold change of barcode share” value worked out at 0.266 ± 0.07.

Regarding V51P, the “fold change of barcode share” value is 0.385 ± 0.32.

Take V51W: the “fold change of barcode share” value is 0.277 ± 0.023.

Consider V51A, for which the “fold change of barcode share” value was 0.204 ± 0.1.

As for V51Q, the “fold change of barcode share” value was determined as 0.337 ± 0.02.

Take V51D: the “fold change of barcode share” value came out at 0.164 ± 0.034.

Regarding I47A, the “fold change of barcode share” value was 0.443 ± 0.1.

Regarding I47P, the “fold change of barcode share” value worked out at 0.278 ± 0.083.

For I47D, the “fold change of barcode share” value stood at 0.426 ± 0.2.

As for I47Q, the “fold change of barcode share” value worked out at 0.294 ± 0.019.

For I47W, the “fold change of barcode share” value turned out to be 0.355 ± 0.013.

In the case of L42Q, the “fold change of barcode share” value amounted to 0.176 ± 0.019.

On to L42D, for which the “fold change of barcode share” value was 0.174 ± 0.037.

As for L42A, the “fold change of barcode share” value came out at 0.184 ± 0.065.

For the variant L42P, the “fold change of barcode share” value is 0.529 ± 0.26.

For the variant L42W, the “fold change of barcode share” value was 0.457 ± 0.27.

Staying with this data set, now noted: with Escherichia coli (laboratory strain); antibiotic: gentamicin; 2× MIC (MIC 0.45 µg/mL).
With I44P, the “fold change of barcode share” value was < 0.00586.

Regarding I44A, the “fold change of barcode share” value stood at 0.0155 ± 0.0086.

Take I46P: the “fold change of barcode share” value was 0.00378 ± 0.0018.

With I46D, the “fold change of barcode share” value came to 0.00636 ± 0.0027.

In the case of I46Q, the “fold change of barcode share” value was < 0.003.

I46W: the “fold change of barcode share” value came to 0.0142 ± 0.015.

Take I46A: the “fold change of barcode share” value is < 0.00208.

Regarding V51P, the “fold change of barcode share” value is < 0.00481.

V51W: the “fold change of barcode share” value is < 0.00552.

As to V51A, the “fold change of barcode share” value was < 0.00839.

Turning to V51Q, the “fold change of barcode share” value is < 0.00965.

With V51D, the “fold change of barcode share” value came out at 0.00652 ± 0.0043.

For the variant I47A, the “fold change of barcode share” value stood at 0.00959 ± 0.011.

As to I47P, the “fold change of barcode share” value amounted to 0.00537 ± 0.0035.

Turning to I47D, the “fold change of barcode share” value was < 0.00755.

As to I47Q, the “fold change of barcode share” value was 0.00586 ± 0.0033.

I47W: the “fold change of barcode share” value came out at 0.0121 ± 0.012.

For L42Q, the “fold change of barcode share” value was < 0.00778.

Turning to L42D, the “fold change of barcode share” value was < 0.0101.

L42A: the “fold change of barcode share” value is < 0.00956.

On to L42P, for which the “fold change of barcode share” value was < 0.0118.

As to L42W, the “fold change of barcode share” value was < 0.00607.

The variants in another data set derive from B2. Described as above. The note with it: with Escherichia coli (laboratory strain); antibiotic: gentamicin; 2× MIC (MIC 0.45 µg/mL). Here is the method:
as §1
On to L112P, for which the “fold change of barcode share” value was > 214 [active].

In the case of L112W, the “fold change of barcode share” value came to 0.0141 ± 0.011.

Consider L112A, for which the “fold change of barcode share” value was 0.00787 ± 0.007.

Consider L112Q, for which the “fold change of barcode share” value is 0.199 ± 0.27.

For the variant L112D, the “fold change of barcode share” value was found to be 7.07 ± 9.6.

In the case of W123Q, the “fold change of barcode share” value is 0.00631 ± 0.0037.

In the case of W123A, the “fold change of barcode share” value was determined as 0.00885 ± 0.0031.

Consider V53D, for which the “fold change of barcode share” value was 0.018 ± 0.006.

Consider V53P, for which the “fold change of barcode share” value was 0.0162 ± 0.0056.

With V53Q, the “fold change of barcode share” value was < 0.0132.

As to V53W, the “fold change of barcode share” value was < 0.00828.

Regarding V53A, the “fold change of barcode share” value was < 0.00946.

Take V88A: the “fold change of barcode share” value is 0.0633 ± 0.04.

In the case of V88Q, the “fold change of barcode share” value amounted to 0.0302 ± 0.02.

For V88D, the “fold change of barcode share” value came out at 3.83 ± 4.9.

For the variant V88P, the “fold change of barcode share” value was determined as 0.0024 ± 0.0015.

For V88W, the “fold change of barcode share” value came out at 0.335 ± 0.4.

Turning to V117A, the “fold change of barcode share” value came out at 0.0054 ± 0.0018.

Turning to V117W, the “fold change of barcode share” value was found to be 0.097 ± 0.12.

As for V117D, the “fold change of barcode share” value is 9.37 ± 13.

L57W: the “fold change of barcode share” value is < 0.00632.

For L57A, the “fold change of barcode share” value was < 0.0053.

Turning to L57D, the “fold change of barcode share” value is < 0.0042.

For the variant L57Q, the “fold change of barcode share” value was found to be 0.152 ± 0.21.

In the case of L57P, the “fold change of barcode share” value was 0.182 ± 0.25.

Regarding W108D, the “fold change of barcode share” value was determined as 0.00505 ± 0.00089.

For W108P, the “fold change of barcode share” value came out at 0.0125 ± 0.0096.

W108Q: the “fold change of barcode share” value was 0.25 ± 0.35.

As to W108A, the “fold change of barcode share” value was found to be 0.00513 ± 0.00047.

Still in this data set, the particulars now being: with Escherichia coli (laboratory strain); antibiotic: carbenicillin; 2× MIC (3.1 µg/mL).
Consider L112W, for which the “fold change of barcode share” value came out at 0.565 ± 0.18.

In the case of L112A, the “fold change of barcode share” value came out at 0.294 ± 0.1.

As for L112Q, the “fold change of barcode share” value worked out at 0.263 ± 0.04.

Consider L112D, for which the “fold change of barcode share” value was 0.651 ± 0.25.

For the variant V53D, the “fold change of barcode share” value stood at 0.249 ± 0.0068.

For V53P, the “fold change of barcode share” value was 0.29 ± 0.11.

V53Q: the “fold change of barcode share” value turned out to be 1.39 ± 0.26.

On to V53W, for which the “fold change of barcode share” value came out at 0.708 ± 0.17.

In the case of V53A, the “fold change of barcode share” value came to 0.345 ± 0.1.

In the case of V88A, the “fold change of barcode share” value amounted to 0.295 ± 0.035.

For V88Q, the “fold change of barcode share” value is 0.437 ± 0.045.

Consider V88D, for which the “fold change of barcode share” value turned out to be 0.992 ± 0.052.

On to V88P, for which the “fold change of barcode share” value was found to be 0.665 ± 0.14.

As to V88W, the “fold change of barcode share” value came to 1.07 ± 0.092.

Turning to V117A, the “fold change of barcode share” value turned out to be 0.269 ± 0.14.

Turning to V117P, the “fold change of barcode share” value is 2.17 ± 0.34.

For V117W, the “fold change of barcode share” value turned out to be 0.676 ± 0.026.

Take V117Q: the “fold change of barcode share” value was 1.01 ± 0.15.

Take V117D: the “fold change of barcode share” value was found to be 0.25 ± 0.087.

L57W: the “fold change of barcode share” value turned out to be 0.319 ± 0.1.

For the variant L57A, the “fold change of barcode share” value is 0.592 ± 0.26.

Take L57D: the “fold change of barcode share” value was found to be 0.31 ± 0.1.

L57Q: the “fold change of barcode share” value came out at 0.349 ± 0.087.

Consider L57P, for which the “fold change of barcode share” value amounted to 0.36 ± 0.1.

For the variant W108D, the “fold change of barcode share” value stood at 0.376 ± 0.14.

Turning to W108P, the “fold change of barcode share” value was determined as 0.487 ± 0.059.

With W108Q, the “fold change of barcode share” value was 0.21 ± 0.023.

In the case of W108A, the “fold change of barcode share” value was found to be 0.478 ± 0.01.

Variants of B3 are the subject of another data set. Described as above. To be noted: with Escherichia coli (laboratory strain); antibiotic: gentamicin; 2× MIC (MIC 0.45 µg/mL). How it is done: as §1
For the variant F210W, the “fold change of barcode share” value is < 0.0158.

For M108D, the “fold change of barcode share” value was determined as 0.00908 ± 0.0071.

Turning to M108A, the “fold change of barcode share” value was determined as 0.00746 ± 0.0061.

For M108W, the “fold change of barcode share” value was 0.0145 ± 0.00079.

Turning to M108P, the “fold change of barcode share” value was 0.0413 ± 0.042.

Staying with this data set, now noted: with Escherichia coli (laboratory strain); antibiotic: carbenicillin; 2× MIC (3.1 µg/mL).
Consider M108D, for which the “fold change of barcode share” value turned out to be 0.738 ± 0.073.

With M108A, the “fold change of barcode share” value was determined as 0.797 ± 0.21.

Consider M108W, for which the “fold change of barcode share” value was 0.669 ± 0.063.

For the variant M108P, the “fold change of barcode share” value is 2.84 ± 0.91.
